We go through 87 compounds from ChEMBL document CHEMBL1201862, “PubChem BioAssay data set” (2004).

SMILES strings stand for the structures.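 96-well plates; 48 h exposure; 5 concentrations. Endpoints by linear interpolation between flanking doses. Not reached: highest tested concentration assigned. GI50 is the concentration that inhibits growth by half.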 The source made the active and inactive calls. No stated cut-off is given here; in the data, active = GI50 up to about 1.1 µM and inactive = higher.

In the assay the test system is NCI-H322M. Kind of assay: NCI tumour cell line growth inhibition, 48 h.
As to `CC(=O)Nc1ccc(Nc2cc(O)nc(O)n2)cc1`, the GI50 was inactive: > 100 µM.

In the case of `Cc1ncc([N+](=O)[O-])n1CCNC(=O)CCCCCn1ccnc1[N+](=O)[O-]`, the GI50 is inactive: > 100 µM.

As to `O=C(O)C(=O)Cc1ccc2c(c1)OCO2`, the GI50 was inactive: > 100 µM.

For the compound `COc1ccc(-c2nc(O)c3ccccc3n2)cc1OC`, the GI50 is inactive: > 100 µM.

Take `N=C(N)NNC(=O)C(=O)O`: the GI50 was inactive: > 100 µM.

For `Cc1nc2ccccc2c(=O)n1NC(=O)c1ccccc1[N+](=O)[O-]`, the GI50 is inactive: > 100 µM.

Regarding `CCOC(=O)C(=O)CC1=Nc2ccccc2SC(c2cccc(C)c2)C1` (configuration not stated), the GI50 is inactive: 21.6 µM.

With `C=CCC(OCCOCC)c1cc(OCCOCC)ccc1OC` (configuration not stated), the GI50 is inactive: > 100 µM.

Regarding `C(=N\OCc1ccccc1)/c1ncccc1C1OCCO1`, the GI50 is inactive: > 100 µM.

Turning to `CC(C)Oc1c(N(Cc2ccccc2)c2ccccc2C2SCCCS2)c(=O)c1=O`, the GI50 is inactive: 6.92 µM.

`Nc1ccc(Sc2c3ccccc3nc3ccccc23)cc1`: the GI50 was inactive: 22.5 µM.

`Nc1c(Br)c(=O)[nH]c(=O)n1COCCO`: the GI50 was inactive: > 100 µM.

As to `CCN(CCCl)c1cc(CN(C)C)cc(NC(=O)C23CCC(C(=O)Nc4cc(CN(C)C)cc(N(CC)CCCl)c4)(CC2)CC3)c1`, the GI50 is inactive: 2.41 µM.

As for `Cc1ccc(OCC(=O)N2N=C(c3ccccc3)CC2(O)c2ccccc2)cc1` (configuration not stated), the GI50 was inactive: 77.6 µM.

As for `COc1cc(/C=C2\CCC/C(=C\c3cc(OC)c(O)c(OC)c3)C2=O)cc(OC)c1O`, the GI50 is inactive: 3.9 µM.

As to `C=C1C2CCC3(CCC4C5(C)CCCC4(C=[N+](CCO)C5)C3C2)C1O` (configuration not stated), the GI50 is inactive: > 100 µM.

For `CCOC(=O)CCCO`, the GI50 is inactive: > 100 µM.

As to `O=c1c2cc([N+](=O)[O-])ccc2n2n1CCCC2`, the GI50 was inactive: > 100 µM.

As for `O=C1C=C(Br)C(=O)C12CCc1ccccc12` (configuration not stated), the GI50 was inactive: 37.3 µM.

Regarding `[O-]c1c2cc(-[n+]3c(-c4ccccc4)cc(-c4ccccc4)cc3-c3ccccc3)cc1COCCOCCOCCOCCOC2`, the GI50 was inactive: 53.8 µM.

For `O=C1/C(=C/c2ccccc2)CN(C(=O)Oc2ccc([N+](=O)[O-])cc2)C/C1=C\c1ccccc1`, the GI50 is inactive: > 10 µM.

Regarding `CN1CCc2cc(N)cc3c2C1Cc1ccc(O)c(O)c1-3` (configuration not stated), the GI50 is inactive: 32.8 µM.

As for `O=c1[nH]c(=O)n(C2CC(O)C(CO)O2)cc1COCC(F)(F)F` (configuration not stated), the GI50 was inactive: > 100 µM.

Take `O=C(Nc1cc(C(F)(F)F)ccc1Cl)C(=O)C(C(=O)c1ccc2ccccc2c1)C1OC(=O)c2ccccc21` (configuration not stated): the GI50 is inactive: 5.36 µM.

For `S=C1N=C(Cl)/C(=C\c2ccco2)N1`, the GI50 is inactive: > 100 µM.

`C[n+]1cn(CC(=O)c2ccccc2)c(C(N)=O)c1N`: the GI50 is inactive: > 100 µM.

Consider `O=[N+]([O-])c1ccc(-c2ccc(-c3csc(Nc4ccccn4)n3)o2)cc1`, for which the GI50 was inactive: > 100 µM.

Turning to `NC1CC(=O)c2sccc21` (configuration not stated), the GI50 is inactive: > 100 µM.

Consider `O=c1c2cc(Br)ccc2nc(CCl)n1-c1ccc(O)c([N+](=O)[O-])c1`, for which the GI50 was inactive: 16.3 µM.

On to `N/N=C(\c1nc2ccc([N+](=O)[O-])cc2nc1O)C(O)c1ccc(Cl)c(Cl)c1` (configuration not stated), for which the GI50 is inactive: > 100 µM.

With `CN1C(=N\S(=O)(=O)c2ccc(Cl)cc2)/C(=N/N=P(c2ccccc2)(c2ccccc2)c2ccccc2)c2ccccc21`, the GI50 is inactive: > 100 µM.

For the compound `CC1=C(C#N)C(N)=C2C(C)=C(C#N)C(N)=C12`, the GI50 was inactive: > 100 µM.

`O=C1NC(=O)C2=C1CCC2O` (configuration not stated): the GI50 was inactive: > 100 µM.

As to `Cc1nc(C)c(N2CCN(C(=O)NC(CCC(=O)O)C(=O)O)CC2)c(O)n1` (configuration not stated), the GI50 is inactive: > 100 µM.

With `N#[N+]c1ccccc1Sc1ccc(Cl)cc1`, the GI50 was inactive: > 100 µM.

For the compound `O=C1Cc2ccccc2CCc2ccccc21`, the GI50 is inactive: > 100 µM.

Regarding `c1ccc2c(c1)c1c(n2CCOCCN2CCCC2)CCCC1`, the GI50 is inactive: 42.5 µM.

For the compound `COc1ccc(OC)c(/N=C/c2cc(OC)c(OC)c(OC)c2)c1`, the GI50 was inactive: > 100 µM.

With `CCSc1n/c(=C\c2ccco2)c2nnnn12`, the GI50 is inactive: > 100 µM.

As for `CO/S(=N/S(=O)(=O)c1ccccc1)c1ccccc1[N+](=O)[O-]` (configuration not stated), the GI50 was inactive: > 100 µM.

Regarding `CCOC(=O)c1ccc(Nc2c3c(nc4ccccc24)CCCC3)cc1`, the GI50 was inactive: > 100 µM.

`CN(N=O)N1C(=O)SCC(c2ccccc2)(c2ccccc2)C1=O`: the GI50 was inactive: 48.1 µM.

Regarding `O=C(O)c1nc2ccc(C(F)(F)F)cc2[nH]c1=O`, the GI50 is inactive: > 100 µM.

As to `CSc1nc(C#N)c(N)n1C`, the GI50 was inactive: > 100 µM.

As to `CCCCN/N=N/c1cn(C2OC(CO)C(O)C2O)c(=O)[nH]c1=O` (configuration not stated), the GI50 was inactive: > 100 µM.

For `Cn1c(=O)c2c(no[n+]2[O-])c2ccccc21`, the GI50 was inactive: 24.7 µM.

Regarding `Cc1occ2c1C(=O)CC1C2[C@@H](O)CC2C(C)(C)CCC[C@]12C` (some centres not stated), the GI50 is inactive: > 100 µM.

In the case of `CC1=NN(c2cccc(Cl)c2)C2(C1=Cc1ccccc1)C(Cl)C(=O)N2c1nc2ccccc2s1` (configuration not stated), the GI50 was inactive: 23.4 µM.

Take `CC(C)(C)OC(=O)N[C@H]1CC(=O)c2ccccc2N(CC(=O)O)C1=O`: the GI50 was inactive: > 100 µM.

For the compound `COCCCNC(=O)CC(=O)NCCCOC`, the GI50 is inactive: > 100 µM.

On to `Cc1ns/c(=N\C(=S)N(C)C)n1C`, for which the GI50 is inactive: > 100 µM.

`CC(C)(C)c1cc(C(=O)Nc2cc(Br)c(Br)cc2S(N)(=O)=O)cc(C(C)(C)C)c1O`: the GI50 is inactive: 12.5 µM.

For the compound `C=C(C(=O)OCC)C(=O)OCC`, the GI50 is inactive: > 100 µM.

For the compound `COc1ccc(/C=C2\Sc3nnc(-c4ccccc4)n3N=C2c2cc(F)c(Cl)cc2Cl)cc1OC`, the GI50 was inactive: 79.1 µM.

With `C=CCc1cccc2cc(C(=O)Nc3nc(C45CC6CC(CC(C6)C4)C5)cs3)c(=O)oc12`, the GI50 is inactive: 26.3 µM.

As to `C[C@]12CC[C@H]3[C@@H](CCC4=CC(=O)C=C[C@@]43OC(=O)C(F)(F)F)[C@@H]1CCC2=O`, the GI50 is inactive: > 100 µM.

For `CN(C(=O)Cc1ccc(Cl)c(Cl)c1)[C@@H]1CCCC[C@H]1[N+]1(C)CC=CC1`, the GI50 is inactive: > 100 µM.

Regarding `O=C1C[C@H](COCc2ccccc2)NC(=O)C[C@H](COCc2ccccc2)NC(=O)C[C@H](COCc2ccccc2)N1`, the GI50 was inactive: > 100 µM.

Take `CC1=NOC(=O)/C1=C/c1ccccc1O`: the GI50 is inactive: > 100 µM.

On to `COc1cc(Br)c(CC2NCCc3cc(OC)c(OC)cc32)cc1OC` (configuration not stated), for which the GI50 was inactive: 59.8 µM.

For `O=C(c1ccc(Cl)c(Cl)c1)N(Cc1cccnc1)C(=S)N(Cc1cccnc1)C(=O)c1ccc(Cl)c(Cl)c1`, the GI50 is inactive: 27.7 µM.

With `O=C(CC(=O)N1N=C(N(c2ccccc2)c2ccccc2)CC1c1ccccc1)Nc1cccc(Cl)c1` (configuration not stated), the GI50 is inactive: > 100 µM.

With `COc1ccc(C(=O)c2ccc(-n3cc(/C=C/[N+](=O)[O-])c4ccccc43)cc2)cc1`, the GI50 was inactive: > 100 µM.

Consider `CC(C)C(OC(=O)c1ccc(NCc2cc(O)ccc2O)cc1)C(C)C`, for which the GI50 was inactive: 5.12 µM.

Turning to `COc1cccc(CCNc2c(C#N)c3n(c4ccccc4[n+]3C)c3ncccc23)c1`, the GI50 is inactive: 13.4 µM.

Consider `CCN(CC)CC(=O)N1CCc2c([nH]c3ccccc23)C1c1cccnc1` (configuration not stated), for which the GI50 was inactive: > 100 µM.

As for `CC(=O)Nc1c(C)cc2c(nc3n2CCC3O)c1[N+](=O)[O-]` (configuration not stated), the GI50 was inactive: > 100 µM.

Consider `NC(=O)c1nnc2cc(F)c(F)cc2c1N`, for which the GI50 was inactive: 48 µM.

On to `NNC(=O)CC(=O)Nc1cccc(Cl)c1`, for which the GI50 is inactive: > 100 µM.

Consider `COc1ccc(OCC(=N/NC(=O)c2ccncc2)/N=C/c2ccncc2)cc1`, for which the GI50 is inactive: > 100 µM.

For the compound `CN(CCN(C)C(=O)CCn1cc(F)c(=O)[nH]c1=O)C(=O)CCn1cc(F)c(=O)[nH]c1=O`, the GI50 is inactive: > 100 µM.

For `Oc1ccc2ccccc2c1/N=N/c1cc(Cl)ccc1Cl`, the GI50 was inactive: 30.8 µM.

In the case of `O=C1CCCc2ccc3c(c21)CC1(Cc2ccccc2C1)C3`, the GI50 is inactive: 28.9 µM.

As for `NS(=O)(=O)c1ccc(NC(=O)c2cccn3c(=O)c4ccccc4nc23)cc1`, the GI50 is inactive: > 100 µM.

On to `O=[N+]([O-])c1ccc2oc(=N/c3ccccc3)/c(=N\c3ccccc3)[nH]c2c1`, for which the GI50 is inactive: > 100 µM.

`CCc1c(O)nc(Nc2nc3ccccc3[nH]2)[nH]c1=O`: the GI50 was inactive: > 100 µM.

`O=C1N/C(=N/N=C/c2c[nH]c3ccccc23)N/C1=C\c1c[nH]c2ccccc12`: the GI50 was inactive: 32.1 µM.

Take `CC1(C)CC(/C=C2/OC(=O)c3ccccc32)=C(C(N)=O)C(=O)O1`: the GI50 is inactive: > 100 µM.

As for `O=C(O)c1ccccc1/C=N\N=C1NCCN1`, the GI50 is inactive: > 100 µM.

With `O=c1[nH]c(=O)n(C2OC(COP(=O)(O)OP(=O)(O)O)C(O)C2O)cc1F` (configuration not stated), the GI50 was inactive: 4.47 µM.

Take `CC1CC2C3CCC4=CC(=O)C=CC4(C)C3(F)C(O)CC2(C)C1(O)C(=O)COP(=O)(O)O` (configuration not stated): the GI50 was inactive: > 100 µM.

For `O=C1C=CC(=O)c2c1cc1ccccc1c2O`, the GI50 was inactive: 17.7 µM.

Regarding `CC(CC(N)C(=O)O)C(=O)O` (configuration not stated), the GI50 was inactive: > 100 µM.

Consider `Cc1ccc2c(O)cc(-c3ccc4ccccc4c3)nc2n1`, for which the GI50 was inactive: 4.47 µM.

Consider `COc1cc(O)c(C(C)=O)c(O)c1`, for which the GI50 was inactive: > 100 µM.

Consider `O=C(NC1=C(Cl)C(=O)c2ccccc2C1=O)c1ccccc1`, for which the GI50 is inactive: > 100 µM.

Consider `CCCC(=O)NC(Nc1ccc(S(=O)(=O)Nc2cc(C)on2)cc1)(C(=O)OCC)C(F)(F)F` (configuration not stated), for which the GI50 was inactive: > 100 µM.
